Results are given in words; binding and its absence hold for the method and conditions named. For some assays here: In cells and extracts the contact can be indirect. Some entries that bind do so weakly or less than the wild type. For some assays here: Sequences can lack the tags named with a protein.
Tests used:
[1] = target: wild-type MLL of REH cells (human (endogenous in REH)) (UniProt Q03164); test: co-IP; native SEM (MLL-AF4) and REH (no 11q23 translocation) cells, all proteins endogenous; anti-MLL IgM (HRX107) coupled to sepharose; blots for ENL and CDK9
[2] = target: T1, AF4 (ALL1 fused gene on Chromosome 4), two-hybrid fusion (human) (UniProt P51825); test: two-hybrid; yeast strain AH109; deletion series of bait clones against full-length versions as GAL4-activation fusions; growth on media missing histidine and adenine
T1 sequence: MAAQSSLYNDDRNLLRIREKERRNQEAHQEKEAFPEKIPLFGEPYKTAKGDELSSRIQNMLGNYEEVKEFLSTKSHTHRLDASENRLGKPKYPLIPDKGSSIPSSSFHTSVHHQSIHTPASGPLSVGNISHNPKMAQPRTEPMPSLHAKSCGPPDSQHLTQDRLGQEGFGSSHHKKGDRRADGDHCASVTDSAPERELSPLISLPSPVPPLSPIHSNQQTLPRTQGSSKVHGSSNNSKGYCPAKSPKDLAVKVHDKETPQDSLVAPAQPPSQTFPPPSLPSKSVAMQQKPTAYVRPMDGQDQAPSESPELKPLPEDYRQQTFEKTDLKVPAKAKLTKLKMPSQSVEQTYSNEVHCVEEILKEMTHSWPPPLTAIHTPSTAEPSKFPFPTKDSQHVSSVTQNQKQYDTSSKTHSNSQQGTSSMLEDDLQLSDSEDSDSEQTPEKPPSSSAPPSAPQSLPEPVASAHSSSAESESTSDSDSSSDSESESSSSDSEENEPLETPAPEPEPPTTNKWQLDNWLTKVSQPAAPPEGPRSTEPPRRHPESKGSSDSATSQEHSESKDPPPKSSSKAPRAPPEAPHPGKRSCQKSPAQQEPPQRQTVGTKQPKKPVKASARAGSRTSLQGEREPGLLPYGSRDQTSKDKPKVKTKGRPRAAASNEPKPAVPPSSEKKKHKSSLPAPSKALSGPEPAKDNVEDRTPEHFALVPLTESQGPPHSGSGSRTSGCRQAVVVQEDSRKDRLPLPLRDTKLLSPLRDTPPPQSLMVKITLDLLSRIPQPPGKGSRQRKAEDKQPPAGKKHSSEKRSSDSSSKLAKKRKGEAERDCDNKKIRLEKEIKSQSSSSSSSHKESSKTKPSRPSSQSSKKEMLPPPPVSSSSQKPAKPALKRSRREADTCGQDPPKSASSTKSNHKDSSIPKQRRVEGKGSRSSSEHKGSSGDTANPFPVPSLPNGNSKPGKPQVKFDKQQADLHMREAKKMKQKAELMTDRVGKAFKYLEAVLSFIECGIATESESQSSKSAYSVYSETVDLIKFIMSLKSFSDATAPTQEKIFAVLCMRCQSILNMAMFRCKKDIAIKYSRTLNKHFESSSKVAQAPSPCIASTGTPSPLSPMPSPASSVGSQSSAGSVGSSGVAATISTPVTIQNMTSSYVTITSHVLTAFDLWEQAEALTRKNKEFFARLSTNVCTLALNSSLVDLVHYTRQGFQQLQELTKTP

Chains of the proteins cited; added tags and fusions are not shown. Lines headed by an entry give the natural chain unless they say otherwise; changes in a name come on top.
UniProt Q03164: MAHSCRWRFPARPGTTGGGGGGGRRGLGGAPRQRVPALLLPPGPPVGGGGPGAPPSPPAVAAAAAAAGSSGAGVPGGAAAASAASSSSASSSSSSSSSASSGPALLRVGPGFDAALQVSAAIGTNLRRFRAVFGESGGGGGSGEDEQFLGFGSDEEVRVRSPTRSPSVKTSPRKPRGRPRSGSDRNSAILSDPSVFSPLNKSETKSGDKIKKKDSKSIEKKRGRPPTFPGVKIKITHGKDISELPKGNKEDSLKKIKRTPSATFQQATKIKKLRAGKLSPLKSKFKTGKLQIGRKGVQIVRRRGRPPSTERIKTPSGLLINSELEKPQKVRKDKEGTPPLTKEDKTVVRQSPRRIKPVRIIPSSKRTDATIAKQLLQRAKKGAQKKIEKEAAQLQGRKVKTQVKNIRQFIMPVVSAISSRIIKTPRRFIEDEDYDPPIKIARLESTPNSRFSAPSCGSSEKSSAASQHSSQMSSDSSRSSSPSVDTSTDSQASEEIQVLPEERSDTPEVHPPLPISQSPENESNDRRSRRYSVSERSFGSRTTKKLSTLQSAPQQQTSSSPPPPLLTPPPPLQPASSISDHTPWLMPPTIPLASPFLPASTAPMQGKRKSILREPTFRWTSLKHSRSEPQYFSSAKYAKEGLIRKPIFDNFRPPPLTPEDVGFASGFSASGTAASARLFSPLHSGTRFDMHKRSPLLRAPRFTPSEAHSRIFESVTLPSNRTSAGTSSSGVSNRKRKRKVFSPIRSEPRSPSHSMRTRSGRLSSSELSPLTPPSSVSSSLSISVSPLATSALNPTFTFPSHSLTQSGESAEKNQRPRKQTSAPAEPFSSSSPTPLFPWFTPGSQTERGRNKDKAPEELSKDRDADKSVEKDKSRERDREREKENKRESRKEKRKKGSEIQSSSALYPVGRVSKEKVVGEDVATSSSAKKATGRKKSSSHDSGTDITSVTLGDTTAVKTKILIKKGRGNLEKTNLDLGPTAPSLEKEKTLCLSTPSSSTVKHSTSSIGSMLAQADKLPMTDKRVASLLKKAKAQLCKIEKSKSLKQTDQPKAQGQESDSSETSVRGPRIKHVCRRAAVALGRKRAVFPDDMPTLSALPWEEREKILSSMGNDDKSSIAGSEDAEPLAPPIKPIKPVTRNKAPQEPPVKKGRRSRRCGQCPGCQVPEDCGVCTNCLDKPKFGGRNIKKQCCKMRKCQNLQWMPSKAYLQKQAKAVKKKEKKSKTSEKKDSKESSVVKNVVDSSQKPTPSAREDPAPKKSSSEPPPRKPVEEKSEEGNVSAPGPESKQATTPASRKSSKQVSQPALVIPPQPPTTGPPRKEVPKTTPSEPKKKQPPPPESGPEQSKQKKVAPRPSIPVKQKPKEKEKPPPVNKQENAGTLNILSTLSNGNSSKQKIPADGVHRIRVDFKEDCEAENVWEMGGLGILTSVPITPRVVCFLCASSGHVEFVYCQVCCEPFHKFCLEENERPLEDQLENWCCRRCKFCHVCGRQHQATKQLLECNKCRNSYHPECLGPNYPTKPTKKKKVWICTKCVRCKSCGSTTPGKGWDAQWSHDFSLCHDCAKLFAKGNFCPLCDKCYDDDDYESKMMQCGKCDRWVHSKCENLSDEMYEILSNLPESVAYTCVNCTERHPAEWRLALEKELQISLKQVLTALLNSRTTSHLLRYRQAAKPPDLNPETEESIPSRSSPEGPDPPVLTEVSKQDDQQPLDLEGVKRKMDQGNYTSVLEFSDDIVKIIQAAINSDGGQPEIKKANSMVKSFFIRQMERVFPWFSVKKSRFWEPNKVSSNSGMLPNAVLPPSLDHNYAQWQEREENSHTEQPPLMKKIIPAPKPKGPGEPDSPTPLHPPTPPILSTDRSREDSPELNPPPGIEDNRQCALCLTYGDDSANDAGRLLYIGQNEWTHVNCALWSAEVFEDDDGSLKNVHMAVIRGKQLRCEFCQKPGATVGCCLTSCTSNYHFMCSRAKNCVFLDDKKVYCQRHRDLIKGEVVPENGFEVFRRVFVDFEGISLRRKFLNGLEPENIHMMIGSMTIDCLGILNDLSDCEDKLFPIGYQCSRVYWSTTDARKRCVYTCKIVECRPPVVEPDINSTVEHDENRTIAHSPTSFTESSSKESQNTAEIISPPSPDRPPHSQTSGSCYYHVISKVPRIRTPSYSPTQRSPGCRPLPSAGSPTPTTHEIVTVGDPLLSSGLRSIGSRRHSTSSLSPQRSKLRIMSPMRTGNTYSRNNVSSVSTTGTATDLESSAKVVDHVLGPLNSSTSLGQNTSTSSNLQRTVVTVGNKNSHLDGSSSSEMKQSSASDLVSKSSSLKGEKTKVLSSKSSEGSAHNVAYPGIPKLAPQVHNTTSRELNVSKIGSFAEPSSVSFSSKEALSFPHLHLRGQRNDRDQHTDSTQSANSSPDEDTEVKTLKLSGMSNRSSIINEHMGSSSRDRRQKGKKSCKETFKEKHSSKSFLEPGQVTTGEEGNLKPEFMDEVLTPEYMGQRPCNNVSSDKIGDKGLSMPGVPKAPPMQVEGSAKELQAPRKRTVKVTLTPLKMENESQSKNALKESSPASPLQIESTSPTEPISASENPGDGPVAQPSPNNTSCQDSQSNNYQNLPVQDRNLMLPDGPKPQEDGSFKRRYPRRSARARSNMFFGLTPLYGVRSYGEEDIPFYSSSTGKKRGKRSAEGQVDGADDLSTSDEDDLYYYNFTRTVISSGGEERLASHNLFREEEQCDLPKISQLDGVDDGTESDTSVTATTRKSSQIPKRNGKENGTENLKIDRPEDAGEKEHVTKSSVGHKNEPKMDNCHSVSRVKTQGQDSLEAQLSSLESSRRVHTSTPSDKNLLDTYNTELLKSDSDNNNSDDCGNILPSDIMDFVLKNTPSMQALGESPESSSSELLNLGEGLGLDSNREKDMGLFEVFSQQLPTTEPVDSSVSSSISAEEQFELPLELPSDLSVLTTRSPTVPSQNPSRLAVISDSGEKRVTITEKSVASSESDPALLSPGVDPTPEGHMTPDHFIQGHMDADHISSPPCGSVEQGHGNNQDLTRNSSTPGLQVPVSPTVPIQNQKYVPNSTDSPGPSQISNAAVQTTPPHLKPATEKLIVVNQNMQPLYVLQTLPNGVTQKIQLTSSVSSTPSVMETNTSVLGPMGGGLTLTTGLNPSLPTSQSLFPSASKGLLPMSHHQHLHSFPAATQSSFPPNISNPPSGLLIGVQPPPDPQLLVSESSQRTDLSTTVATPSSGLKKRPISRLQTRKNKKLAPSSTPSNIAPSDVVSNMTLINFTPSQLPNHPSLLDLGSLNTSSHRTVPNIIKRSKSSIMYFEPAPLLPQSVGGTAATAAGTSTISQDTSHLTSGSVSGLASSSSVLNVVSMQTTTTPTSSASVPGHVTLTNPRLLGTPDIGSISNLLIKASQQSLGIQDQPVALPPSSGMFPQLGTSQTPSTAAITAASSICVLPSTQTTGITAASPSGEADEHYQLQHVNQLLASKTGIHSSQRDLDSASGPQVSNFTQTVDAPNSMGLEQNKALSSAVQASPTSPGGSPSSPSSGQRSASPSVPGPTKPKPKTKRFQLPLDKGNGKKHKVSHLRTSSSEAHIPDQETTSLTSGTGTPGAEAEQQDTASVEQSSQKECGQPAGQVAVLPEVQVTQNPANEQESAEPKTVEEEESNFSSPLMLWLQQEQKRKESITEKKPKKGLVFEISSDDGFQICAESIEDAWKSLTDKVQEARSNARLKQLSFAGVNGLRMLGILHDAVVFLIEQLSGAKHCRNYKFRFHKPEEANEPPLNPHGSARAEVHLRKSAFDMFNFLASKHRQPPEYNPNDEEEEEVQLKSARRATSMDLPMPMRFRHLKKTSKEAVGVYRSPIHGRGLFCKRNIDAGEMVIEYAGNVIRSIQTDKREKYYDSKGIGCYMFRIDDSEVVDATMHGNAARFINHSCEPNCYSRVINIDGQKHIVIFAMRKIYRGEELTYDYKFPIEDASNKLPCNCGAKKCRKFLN
UniProt Q6XZL8: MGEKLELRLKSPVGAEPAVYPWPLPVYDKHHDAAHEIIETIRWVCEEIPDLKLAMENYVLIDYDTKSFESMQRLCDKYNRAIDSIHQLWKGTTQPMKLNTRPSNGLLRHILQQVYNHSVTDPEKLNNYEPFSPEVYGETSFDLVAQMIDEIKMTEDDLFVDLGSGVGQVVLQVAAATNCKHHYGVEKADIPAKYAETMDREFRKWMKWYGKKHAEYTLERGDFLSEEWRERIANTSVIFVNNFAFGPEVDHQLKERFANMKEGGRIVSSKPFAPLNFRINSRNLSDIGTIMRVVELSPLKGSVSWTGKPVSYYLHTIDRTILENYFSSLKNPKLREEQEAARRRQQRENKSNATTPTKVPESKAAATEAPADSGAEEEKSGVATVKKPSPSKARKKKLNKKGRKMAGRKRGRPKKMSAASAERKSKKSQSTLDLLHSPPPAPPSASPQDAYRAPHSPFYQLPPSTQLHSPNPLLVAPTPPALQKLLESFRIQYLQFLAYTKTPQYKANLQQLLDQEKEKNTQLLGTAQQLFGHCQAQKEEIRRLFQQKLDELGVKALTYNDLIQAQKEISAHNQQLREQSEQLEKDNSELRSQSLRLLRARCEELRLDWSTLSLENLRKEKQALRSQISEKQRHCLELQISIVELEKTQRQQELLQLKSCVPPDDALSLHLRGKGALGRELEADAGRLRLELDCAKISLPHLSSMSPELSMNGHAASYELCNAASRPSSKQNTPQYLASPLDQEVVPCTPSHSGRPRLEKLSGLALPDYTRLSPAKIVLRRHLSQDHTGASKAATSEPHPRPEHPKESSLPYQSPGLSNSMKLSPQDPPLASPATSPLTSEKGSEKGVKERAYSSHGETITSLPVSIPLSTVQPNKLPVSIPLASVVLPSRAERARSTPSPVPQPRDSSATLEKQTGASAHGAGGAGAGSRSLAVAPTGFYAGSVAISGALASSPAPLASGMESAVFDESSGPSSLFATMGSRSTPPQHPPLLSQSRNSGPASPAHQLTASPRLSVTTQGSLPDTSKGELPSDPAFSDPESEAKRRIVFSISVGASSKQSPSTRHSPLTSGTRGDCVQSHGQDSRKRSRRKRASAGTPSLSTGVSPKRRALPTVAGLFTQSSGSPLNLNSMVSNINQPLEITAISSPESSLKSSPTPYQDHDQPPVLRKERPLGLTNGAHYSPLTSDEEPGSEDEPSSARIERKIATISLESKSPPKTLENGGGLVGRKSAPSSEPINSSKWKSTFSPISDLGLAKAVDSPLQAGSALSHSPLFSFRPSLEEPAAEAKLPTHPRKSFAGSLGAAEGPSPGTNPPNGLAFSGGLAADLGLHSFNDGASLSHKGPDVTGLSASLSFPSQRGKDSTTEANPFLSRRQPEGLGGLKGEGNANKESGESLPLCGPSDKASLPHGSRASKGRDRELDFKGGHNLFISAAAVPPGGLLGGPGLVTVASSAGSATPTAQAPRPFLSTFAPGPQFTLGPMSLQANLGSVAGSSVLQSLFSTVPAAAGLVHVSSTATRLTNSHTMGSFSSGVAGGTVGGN
UniProt P50750: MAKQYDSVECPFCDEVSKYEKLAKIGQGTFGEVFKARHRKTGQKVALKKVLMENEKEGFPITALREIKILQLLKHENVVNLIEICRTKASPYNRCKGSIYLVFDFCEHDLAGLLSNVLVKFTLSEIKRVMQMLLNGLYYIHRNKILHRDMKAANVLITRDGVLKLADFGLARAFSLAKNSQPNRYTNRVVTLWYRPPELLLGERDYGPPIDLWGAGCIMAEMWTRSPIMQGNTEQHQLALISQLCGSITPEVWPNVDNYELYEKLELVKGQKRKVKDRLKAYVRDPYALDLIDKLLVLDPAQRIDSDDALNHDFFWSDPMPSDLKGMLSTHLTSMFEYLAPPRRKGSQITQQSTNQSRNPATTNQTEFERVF

[3] = target: Dot1l (disruptor of telomeric silencing like), mouse, two-hybrid fusion (mouse) (UniProt Q6XZL8); test: as above
[4] = target: T2, ENL (eleven nineteen leukemia protein), full-length two-hybrid fusion (human) (UniProt Q03111); test: as above
T2 sequence: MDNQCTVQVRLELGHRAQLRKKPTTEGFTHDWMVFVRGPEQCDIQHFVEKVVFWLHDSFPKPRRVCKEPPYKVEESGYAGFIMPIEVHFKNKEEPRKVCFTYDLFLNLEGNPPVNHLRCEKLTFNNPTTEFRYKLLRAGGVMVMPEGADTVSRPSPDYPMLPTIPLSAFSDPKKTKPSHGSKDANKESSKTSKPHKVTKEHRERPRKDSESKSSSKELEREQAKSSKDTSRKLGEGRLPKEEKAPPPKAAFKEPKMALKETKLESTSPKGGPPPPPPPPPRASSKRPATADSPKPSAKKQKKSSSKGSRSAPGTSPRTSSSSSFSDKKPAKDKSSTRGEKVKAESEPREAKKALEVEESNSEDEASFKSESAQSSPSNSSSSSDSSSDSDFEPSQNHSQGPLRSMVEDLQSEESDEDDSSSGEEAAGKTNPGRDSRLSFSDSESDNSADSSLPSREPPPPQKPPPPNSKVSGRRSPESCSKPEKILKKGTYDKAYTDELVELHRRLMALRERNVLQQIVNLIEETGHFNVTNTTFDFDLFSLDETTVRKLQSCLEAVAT

[5] = target: T3, ENL lacking the last 15 amino acids (ENL 1-544), two-hybrid bait (human) (UniProt Q03111); test: as above
T3 sequence: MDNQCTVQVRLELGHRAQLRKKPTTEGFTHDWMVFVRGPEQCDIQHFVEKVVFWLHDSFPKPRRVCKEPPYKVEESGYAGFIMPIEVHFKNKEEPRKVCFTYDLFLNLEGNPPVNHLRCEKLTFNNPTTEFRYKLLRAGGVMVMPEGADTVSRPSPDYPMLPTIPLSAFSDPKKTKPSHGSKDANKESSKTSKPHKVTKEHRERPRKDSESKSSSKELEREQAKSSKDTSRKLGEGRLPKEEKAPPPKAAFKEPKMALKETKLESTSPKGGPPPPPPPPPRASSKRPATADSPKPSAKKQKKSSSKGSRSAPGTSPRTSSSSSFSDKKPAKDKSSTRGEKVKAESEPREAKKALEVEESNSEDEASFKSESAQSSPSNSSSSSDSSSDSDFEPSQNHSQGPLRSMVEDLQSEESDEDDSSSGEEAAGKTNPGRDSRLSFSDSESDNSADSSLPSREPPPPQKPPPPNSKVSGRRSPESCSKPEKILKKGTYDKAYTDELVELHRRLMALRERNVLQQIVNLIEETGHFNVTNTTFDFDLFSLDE

endogenous CDK9 (cyclin dependent kinase 9, kinase of pTEFb) (from UniProt P50750 1-372)
binding [1]: no binding

CYCT2A (Cyclin T2, the cyclin component of pTEFb), two-hybrid fusion (from UniProt O60583-2 1-663)
binding [2]: binds | binding [3]: binds | binding [4]: no binding

Dot1l (disruptor of telomeric silencing like), mouse, two-hybrid fusion (from UniProt Q6XZL8-1 1-1540)
binding [4]: binds | binding [5]: no binding

B1: ENL (eleven nineteen leukemia protein), full-length two-hybrid fusion (natural protein, human, UniProt Q03111 1-559, looked up)
chain: MDNQCTVQVRLELGHRAQLRKKPTTEGFTHDWMVFVRGPEQCDIQHFVEKVVFWLHDSFPKPRRVCKEPPYKVEESGYAGFIMPIEVHFKNKEEPRKVCFTYDLFLNLEGNPPVNHLRCEKLTFNNPTTEFRYKLLRAGGVMVMPEGADTVSRPSPDYPMLPTIPLSAFSDPKKTKPSHGSKDANKESSKTSKPHKVTKEHRERPRKDSESKSSSKELEREQAKSSKDTSRKLGEGRLPKEEKAPPPKAAFKEPKMALKETKLESTSPKGGPPPPPPPPPRASSKRPATADSPKPSAKKQKKSSSKGSRSAPGTSPRTSSSSSFSDKKPAKDKSSTRGEKVKAESEPREAKKALEVEESNSEDEASFKSESAQSSPSNSSSSSDSSSDSDFEPSQNHSQGPLRSMVEDLQSEESDEDDSSSGEEAAGKTNPGRDSRLSFSDSESDNSADSSLPSREPPPPQKPPPPNSKVSGRRSPESCSKPEKILKKGTYDKAYTDELVELHRRLMALRERNVLQQIVNLIEETGHFNVTNTTFDFDLFSLDETTVRKLQSCLEAVAT
binding [2]: binds

B2: endogenous ENL (protein, UniProt Q03111 1-559)
chain: MDNQCTVQVRLELGHRAQLRKKPTTEGFTHDWMVFVRGPEQCDIQHFVEKVVFWLHDSFPKPRRVCKEPPYKVEESGYAGFIMPIEVHFKNKEEPRKVCFTYDLFLNLEGNPPVNHLRCEKLTFNNPTTEFRYKLLRAGGVMVMPEGADTVSRPSPDYPMLPTIPLSAFSDPKKTKPSHGSKDANKESSKTSKPHKVTKEHRERPRKDSESKSSSKELEREQAKSSKDTSRKLGEGRLPKEEKAPPPKAAFKEPKMALKETKLESTSPKGGPPPPPPPPPRASSKRPATADSPKPSAKKQKKSSSKGSRSAPGTSPRTSSSSSFSDKKPAKDKSSTRGEKVKAESEPREAKKALEVEESNSEDEASFKSESAQSSPSNSSSSSDSSSDSDFEPSQNHSQGPLRSMVEDLQSEESDEDDSSSGEEAAGKTNPGRDSRLSFSDSESDNSADSSLPSREPPPPQKPPPPNSKVSGRRSPESCSKPEKILKKGTYDKAYTDELVELHRRLMALRERNVLQQIVNLIEETGHFNVTNTTFDFDLFSLDETTVRKLQSCLEAVAT
binding [1]: no binding

Reference: PMC2774266, “Misguided Transcriptional Elongation Causes Mixed Lineage Leukemia” (PLoS Biology, 2009)
